# Test results published in PubChem BioAssay AID1768 (National Center for Advancing Translational Sciences (NCATS), 2009).
# The campaign covered roughly 270,000 compounds. About 620 (0.23%) were called active. Inconclusive means that the source gave no clear call. Such entries were picked first, then a sample of the others. The call rests on the fitted dose curve; in most records, active means well fitted inhibition curve with a large enough effect in the polarisation, with a control signal flat (not every such curve was filed as active); inconclusive means small, poorly fitted or top-dose-only effect, or effect the other way, or a change in a side signal; inactive means no such curve, though single readings can be large or run the other way; the % refers to the polarisation. Potencies beside an inconclusive call are fits to weak or partial responses and may not hold up. A note “side channel” means that the fit belongs to a control or component signal, not to the main read-out.
# Target: Menin (Homo sapiens) (UniProt O00255)
# Chain of UniProt O00255 (O00255 whole entry, looked up): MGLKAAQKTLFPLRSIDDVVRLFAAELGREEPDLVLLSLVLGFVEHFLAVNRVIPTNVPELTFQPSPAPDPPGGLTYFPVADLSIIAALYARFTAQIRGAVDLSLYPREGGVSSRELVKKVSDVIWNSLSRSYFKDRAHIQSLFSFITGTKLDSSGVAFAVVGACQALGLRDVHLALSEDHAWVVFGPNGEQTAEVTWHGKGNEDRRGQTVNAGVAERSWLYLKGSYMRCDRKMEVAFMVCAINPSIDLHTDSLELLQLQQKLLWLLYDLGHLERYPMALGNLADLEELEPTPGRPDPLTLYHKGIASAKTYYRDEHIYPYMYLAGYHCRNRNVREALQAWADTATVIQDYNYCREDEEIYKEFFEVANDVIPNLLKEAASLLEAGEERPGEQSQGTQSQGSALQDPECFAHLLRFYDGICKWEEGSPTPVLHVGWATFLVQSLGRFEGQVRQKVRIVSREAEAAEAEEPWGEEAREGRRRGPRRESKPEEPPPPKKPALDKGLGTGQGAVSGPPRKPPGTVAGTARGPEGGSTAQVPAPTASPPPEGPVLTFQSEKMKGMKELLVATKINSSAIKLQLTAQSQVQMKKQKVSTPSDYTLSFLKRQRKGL
# Assay: qHTS Assay for Inhibitors Targeting the Menin-MLL Interaction in MLL Related Leukemias: Competition With Texas Red Labeled MLL-derived Mutant Peptide; on FP activity change, negative = inhibition: % of control where 0% means no effect
# Conditions: fluorescence polarization; series mostly up to 61.6 µM; FP activity change, negative = inhibition: at the top concentration
# Potency means the concentration at half of the fitted maximal effect; tags describe the fitted curve by direction and shape or compound fluorescence and quenching.
SMILES,Potency,"FP activity change, negative = inhibition"
CCn1c(C)c(C(=O)Nc2ccc(OC)cc2)c2cc(OC)ccc21,"inconclusive: 31.6 µM [inhibitor, single point]",
Cc1cccc(-n2c(-c3cccs3)nc3ccccc3c2=O)c1,"inconclusive: 2.24 µM [inhibitor, full curve]",
CCOc1cc2c(cc1OCC)-n1cccc1C(c1ccccc1F)NC2 (configuration not stated),"inconclusive: 8.91 µM [inhibitor, partial curve]",
c1cncc(C2Nc3cccc4cccc(c34)N2)c1,"inconclusive: 28.2 µM [quencher, side channel, partial curve]",
c1ccc(-c2ccc(C(c3ccccc3)n3ccnc3)cc2)cc1 (configuration not stated),"inconclusive: 3.16 µM [fluorescent, side channel, full curve]",
C/C(CC(=O)Nc1cc(C)ccn1)=N\NC(=O)c1ccncc1,"inconclusive: 35.5 µM [quencher, side channel, single point]",
NC(=O)c1cc([N+](=O)[O-])cc([N+](=O)[O-])c1,,inactive: -4.08%
Cc1cc2ccccc2n1CCNC(=O)COc1ccccc1,"inconclusive: 14.1 µM [fluorescent, side channel, partial curve]",
COc1ccc(-n2c(/C=C/c3ccc(O)c(O)c3)nc3ccccc3c2=O)cc1,"inconclusive: 28.2 µM [quencher, side channel, partial curve]",
COc1ccc(-c2cn(CCO)nc2-c2ccc(OC)cc2)cc1,"inconclusive: 11.2 µM [inhibitor, partial curve]",
Cc1cccc(-n2c(-c3ccco3)nc3ccccc3c2=O)c1C,"inconclusive: 4.47 µM [inhibitor, full curve, poor fit]",
Cc1nn(Cc2ccccc2Cl)c(C)c1C(=O)NC1CCCc2ccccc21 (configuration not stated),"inconclusive: 25.1 µM [fluorescent, side channel, single point]",
Cc1cccc(N2C(=O)/C(=C/c3ccc(N4CCN(C)CC4)o3)C(=O)NC2=S)c1C,"inconclusive: 39.8 µM [inhibitor, partial curve, poor fit]",
CN(C(=O)c1cccc(N2C(=O)C3C4C=CC(C4)C3C2=O)c1)C1CCCCC1 (configuration not stated),"inconclusive: 28.2 µM [inhibitor, single point]",
COc1ccc(C)cc1NC(=O)CN1CCN(CC(=O)Nc2ccccc2F)CC1,"inconclusive: 11.2 µM [inhibitor, single point]",
CCC(=O)Oc1ccc2c(c1)CCC1C2CC[C@]2(C)C(OC(=O)CC)CCC12 (some centres not stated),"inconclusive: 2.82 µM [fluorescent, side channel, partial curve]",
CC[n+]1c(/C=C/N(C)c2ccccc2)sc2ccc(Cl)cc21,"inconclusive: 28.2 µM [fluorescent, side channel, partial curve]",
COC(=O)[C@H]1[C@@H](c2ccccc2)[C@@]2(c3ccccc3)Oc3ccccc3[C@@]1(O)[C@@H]2O,"inconclusive: 7.08 µM [quencher, side channel, single point]",
CC1(C)OC(c2ccccc2)=C/C(=C/C=C2C(=O)NC(=O)NC2=O)O1,"inconclusive: 14.1 µM [inhibitor, single point]",

SMILES,Potency,"FP activity change, negative = inhibition"
CCCC(c1nnnn1Cc1cccs1)N1CCN(c2nc3ccccc3s2)CC1 (configuration not stated),"inconclusive: 25.1 µM [quencher, side channel, partial curve]",
CC1(C)[C@H](C(=O)O[C@H](C#N)c2cccc(Oc3ccccc3)c2)[C@@H]1C=C(Br)Br,,inactive: 6.84%
NCc1cccnc1,,inactive: -18%
CCCCC/C=C\C/C=C\C/C=C\C/C=C\CCCCCC(=O)NCCO,"inconclusive: 17.8 µM [inhibitor, partial curve]",
Cc1cc(OCC(=O)N[C@@H](Cc2ccccc2)C(=O)O)c2c3c(c(=O)oc2c1)CCCC3,,inactive: 3.55%
C=CC(C)(C)c1c2c(c(O)c3c(=O)c4ccc(O)c(O)c4oc13)C=CC(C)(C)O2,"inconclusive: 3.55 µM [quencher, side channel, full curve]",
CN1CCN(c2ccc([N+](=O)[O-])c(N/N=C3\CN4CCC3CC4)c2)CC1,"inconclusive: 2.82 µM [inhibitor, full curve, poor fit]",
Cc1cc(OCC(=O)NCc2ccc(S(N)(=O)=O)cc2)c2c3c(c(=O)oc2c1)CCC3,"inconclusive: 28.2 µM [inhibitor, single point]",
CCN1C(=O)/C(=C\c2ccc([N+](=O)[O-])s2)C(=O)NC1=S,"inconclusive: 12.6 µM [fluorescent, side channel, partial curve]",
O=c1[nH]c(=S)n(-c2ccccc2F)c(O)c1C=NCCN1CCNCC1,"inconclusive: 3.55 µM [inhibitor, partial curve]",
COc1ccc(-c2cc(=O)c3c(OC)c(OC)c(OC)cc3o2)cc1,"inconclusive: 25.1 µM [inhibitor, partial curve, poor fit]",
CCC(CC)C1C(C#N)=C(N)Oc2c1c(=O)oc1ccccc21 (configuration not stated),"inconclusive: 25.1 µM [quencher, side channel, single point]",
Cc1cccc(NC(=O)c2cccc(NS(=O)(=O)c3ccc(Cl)cc3)c2)c1,"inconclusive: 17.8 µM [quencher, side channel, partial curve]",
CCOC(=O)c1c(C=O)c2ccccc2n1Cc1ccccc1F,"inconclusive: 31.6 µM [fluorescent, side channel, single point]",
O[C@@H]1[C@H](O)[C@H]2[C@@H](O)CCN2C[C@@H]1O,"inconclusive: 14.1 µM [fluorescent, partial curve]",
Clc1ccc2c(c1)CCc1cccnc1C2=C1CCNCC1,"inconclusive: 44.7 µM [inhibitor, partial curve]",
CC1=NN(c2ccccc2)C(=O)C1/C=C1\C(=O)NC(=O)N(c2cc(C)cc(C)c2)C1=O (configuration not stated),"inconclusive: 25.1 µM [quencher, side channel, single point]",
Cc1sc2ncn(CC(=O)NCC(=O)N3CCC4(CC3)OCCO4)c(=O)c2c1C,"inconclusive: 3.16 µM [inhibitor, partial curve]",
